The values below come from PubChem BioAssay AID2528 (National Center for Advancing Translational Sciences (NCATS), 2010).

Among all 350,000 compounds or so, about 700 (0.2%) were called active. Calls follow the shape of the dose curve; as a rule, active = well fitted inhibition curve with a large enough effect; inconclusive = small, poorly fitted or top-dose-only effect; inactive = flat fitted curve, though single readings scatter. Only a part is listed here, and it is no random draw.
Potency is read from the fitted curve at half-maximal effect.

This assay addresses RecQ-like DNA helicase BLM (Homo sapiens) (UniProt P54132). The assay can be described thus: qHTS Assay for Inhibitors of Bloom's syndrome helicase (BLM). Also: nearly all actives have a fitted effect of over 35% in size.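 As to activity change, negative = inhibition: plate controls were vehicle for no effect and no enzyme for full effect.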 Particulars: recombinant BLM DNA unwinding, fluorescence dequenching; series mostly up to 56.1 µM; activity change, negative = inhibition: at the top concentration.
UniProt P54132, sequence (P54132 whole entry, looked up): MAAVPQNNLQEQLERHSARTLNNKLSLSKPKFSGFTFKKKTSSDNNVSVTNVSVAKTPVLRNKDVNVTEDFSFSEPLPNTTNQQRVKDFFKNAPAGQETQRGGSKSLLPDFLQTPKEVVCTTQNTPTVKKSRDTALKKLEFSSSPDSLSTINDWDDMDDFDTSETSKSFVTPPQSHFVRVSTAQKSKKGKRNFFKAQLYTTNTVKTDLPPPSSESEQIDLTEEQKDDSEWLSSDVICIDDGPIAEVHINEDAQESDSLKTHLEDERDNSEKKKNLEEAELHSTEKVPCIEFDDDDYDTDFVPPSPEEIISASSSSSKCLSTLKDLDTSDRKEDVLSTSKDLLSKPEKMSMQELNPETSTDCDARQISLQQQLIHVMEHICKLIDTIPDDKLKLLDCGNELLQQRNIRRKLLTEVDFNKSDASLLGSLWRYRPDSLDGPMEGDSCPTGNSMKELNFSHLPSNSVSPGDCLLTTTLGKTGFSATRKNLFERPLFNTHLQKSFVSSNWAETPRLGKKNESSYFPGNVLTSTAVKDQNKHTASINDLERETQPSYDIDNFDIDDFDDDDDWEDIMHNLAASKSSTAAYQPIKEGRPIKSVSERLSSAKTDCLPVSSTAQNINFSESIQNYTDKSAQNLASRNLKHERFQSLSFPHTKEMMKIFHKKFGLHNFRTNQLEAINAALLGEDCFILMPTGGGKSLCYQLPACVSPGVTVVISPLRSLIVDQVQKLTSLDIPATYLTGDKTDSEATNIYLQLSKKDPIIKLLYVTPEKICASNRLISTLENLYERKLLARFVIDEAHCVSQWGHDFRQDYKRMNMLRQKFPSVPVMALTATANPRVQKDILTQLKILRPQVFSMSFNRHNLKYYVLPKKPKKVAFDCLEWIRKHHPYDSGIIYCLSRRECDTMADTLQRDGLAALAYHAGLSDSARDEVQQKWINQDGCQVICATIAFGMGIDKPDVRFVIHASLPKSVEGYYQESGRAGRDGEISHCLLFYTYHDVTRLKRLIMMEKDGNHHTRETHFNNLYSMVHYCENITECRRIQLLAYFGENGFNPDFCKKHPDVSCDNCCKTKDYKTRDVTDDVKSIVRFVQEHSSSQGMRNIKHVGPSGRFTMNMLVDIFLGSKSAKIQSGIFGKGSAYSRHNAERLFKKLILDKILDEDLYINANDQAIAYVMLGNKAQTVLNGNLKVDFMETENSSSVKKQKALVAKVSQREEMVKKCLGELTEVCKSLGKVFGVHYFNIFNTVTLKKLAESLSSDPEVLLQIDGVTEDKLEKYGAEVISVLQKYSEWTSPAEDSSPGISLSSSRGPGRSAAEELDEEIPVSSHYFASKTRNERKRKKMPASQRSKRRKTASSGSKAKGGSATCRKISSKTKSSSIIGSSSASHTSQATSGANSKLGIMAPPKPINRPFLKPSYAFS
As to `O=C(NCCNC[C@@H](O)COc1ccc(O)cc1)N1CCOCC1`, the Potency result is “inactive”. With `O=c1cc(N2CCOCC2)oc2c(-c3ccccc3)cccc12`, the “activity change, negative = inhibition” value was inactive: -11.9%. Regarding `CO[C@@]1(NC(=O)CSCC#N)C(=O)N2C(C(=O)O)=C(CSc3nnnn3C)CSC21` (some centres not stated), the “activity change, negative = inhibition” value was inactive: -9.67%.

Turning to `CC(C)(C)NC(=O)[C@@H]1CC[C@@H]2[C@@H]3CC[C@@H]4NC(=O)C=C[C@@]4(C)[C@H]3CC[C@]21C`, the “activity change, negative = inhibition” value is inactive: 2.58% [at 21.4 µM]. For the compound `O=C1C2C3C=CC(C3)C2C(=O)N1CNc1ccc(O)cc1` (configuration not stated), the Potency was active: 25.1 µM. Turning to `O=C(Nc1ccc([N+](=O)[O-])cc1Cl)c1cc(Cl)ccc1O`, the Potency result was “inactive”.

Regarding `C#C[C@]1(O)CC[C@H]2[C@@H]3CCC4=Cc5oncc5C[C@]4(C)[C@H]3CC[C@@]21C`, the “activity change, negative = inhibition” value was inactive: 1.5%. In the case of `CN(C(=O)COC(=O)c1cc(-c2ccco2)nc2ccccc12)C1CCS(=O)(=O)C1` (configuration not stated), the Potency is active: 3.16 µM. In the case of `OCc1cc([C@@H](O)CNCCCCCCOCCCCc2ccccc2)ccc1O`, the “activity change, negative = inhibition” value was inactive: -1.9%. Same read-out and setting: then `CN(C(=O)CCCOc1ccc2[nH]c(=O)ccc2c1)C1CCCCC1`, with inactive: 1.35%; and `CCc1c(C)[nH]c2c1C(=O)[C@H](CN1CCOCC1)CC2`, with inactive: 1.03% [at 21.4 µM].

Turning to `COc1ccc(NS(=O)(=O)c2ccc(O)c(NC(=O)c3cc4c(C)nn(-c5ccc(F)cc5)c4s3)c2)cc1`, the Potency is active: 28.2 µM. The same measure, in the same setting: to `O=C(c1cc2c(s1)CCC2)N1CCN(c2ccccc2)CC1` belongs active: 12.6 µM. Take `CC1(C)SC2C(NC(=O)C(N)c3ccccc3)C(=O)N2C1C(=O)O` (configuration not stated): the “activity change, negative = inhibition” value was inactive: -13.9%. Regarding `N[C@@H](COP(=O)(O)O)C(=O)O`, the “activity change, negative = inhibition” value was inactive: 2.72%. As to `CCCCc1oc2ccccc2c1C(=O)c1cc(I)c(OCCN(CC)CC)c(I)c1`, the Potency entry was “inactive”.

For the compound `CN(Cc1cnc2nc(N)nc(N)c2n1)c1ccc(C(=O)NC(CCC(=O)O)C(=O)O)cc1` (configuration not stated), the “activity change, negative = inhibition” value was inactive: 3.97%. Regarding `C[C@@]12C(=O)OC(=O)[C@@]1(C)[C@@H]1CC[C@@H]2O1`, the “activity change, negative = inhibition” value was inactive: -8.56%.

Take `NC(N)=NC(N)=Nc1ccccc1`: the Potency entry was “inactive”. With `CC(=O)c1ccc(NC(=O)CC2Nc3cccc4cccc(c34)NC2=O)cc1` (configuration not stated), the “activity change, negative = inhibition” value was inactive: -5.01%. With `NCCc1ccc(O)c(O)c1`, the Potency entry was “inactive”. Take `NC(=O)c1ccccc1`: the “activity change, negative = inhibition” value was inactive: -3.44%.

For `CCCN(CC1CC1)c1nc(C)nc(Nc2c(Cl)cc(Cl)cc2Cl)c1Cl`, the “activity change, negative = inhibition” value is inactive: -1.94%. For `C[C@@H]1CCN=C(N)S1`, the “activity change, negative = inhibition” value is inactive: -8.13%. Regarding `NS(=O)(=O)c1cc2c(cc1Cl)NC(C1C[C@H]3C=C[C@@H]1C3)NS2(=O)=O` (some centres not stated), the “activity change, negative = inhibition” value was inactive: -8.63%. As for `CC(C)(C)NC(=O)[C@H]1CC[C@H]2[C@@H]3CC[C@H]4NC(=O)C=C[C@]4(C)[C@H]3CC[C@]12C`, the “activity change, negative = inhibition” value was inactive: -11.3%.

Regarding `O=C(N/N=C/c1ccc(O)c(O)c1)N/N=C/c1ccc(O)c(O)c1`, the Potency is active: 7.94 µM. Regarding `O=C(O)C[C@@H]1C(=O)O[C@@H]2C(COC(=O)c3cc(O)c(O)c(O)c3)O[C@@H](OC(=O)c3cc(O)c(O)c(O)c3)[C@@H](OC(=O)c3cc(O)c(O)c4c3[C@H]1[C@H](O)C(=O)O4)[C@H]2OC(=O)c1cc(O)c(O)c(O)c1` (some centres not stated), the Potency is active: 0.1 µM.

In the case of `Cc1c(C(=O)N/N=C/c2ccc(-c3ccccc3[N+](=O)[O-])o2)sc(N)c1C#N`, the Potency is active: 7.94 µM.

Take `C=CCn1c(NS(=O)(=O)c2ccccc2)c(S(=O)(=O)c2ccc(C)cc2)c2nc3ccccc3nc21`: the Potency was active: 4.47 µM. For `COC(=O)[C@H]1[C@H]2C[C@H]3c4[nH]c5ccccc5c4CCN3C[C@H]2CC[C@@H]1O`, the “activity change, negative = inhibition” value is inactive: 0.319%. As for `CC(C)C(=O)c1c(C(C)C)nn2ccccc12`, the “activity change, negative = inhibition” value is inactive: -3.88%. For the compound `Cn1nc(-c2ccc(C(=O)Nc3ccc(F)cc3)cc2)c2ccccc2c1=O`, the “activity change, negative = inhibition” value is inactive: -28.9%. In the case of `CC[C@]1(O)C[C@@H]2CN(CCc3c([nH]c4ccccc34)[C@@](C(=O)OC)(c3cc4c(cc3OC)N(C)[C@H]3[C@@](O)(C(=O)OC)[C@H](OC(C)=O)[C@]5(CC)C=CCN6CC[C@]43[C@@H]65)C2)C1`, the “activity change, negative = inhibition” value was inactive: -7.91%. On to `Oc1ccc(Nc2nc(NCC3CCCO3)c3ccccc3n2)cc1` (configuration not stated), for which the Potency was active: 15.8 µM. Still for that read-out and setting: to `CCCC(C(=O)OCCN(CC)CC)(c1ccccc1)c1ccccc1` belongs “inactive”; to `Clc1ccccc1C(c1ccccc1)(c1ccccc1)n1ccnc1`, “inactive”. `NC(=O)NO`: the “activity change, negative = inhibition” value is inactive: 4.42%. With `O=C(CSc1ccccn1)Nc1ccc2c(c1)C(=O)c1ccccc1C2=O`, the Potency was active: 25.1 µM. `COc1cc(CC2COC(c3ccc(O)c(OC)c3)C2COC(C)=O)ccc1O` (configuration not stated): the Potency was active: 25.1 µM. As for `CCN1/C(=C/C(C)=O)Sc2ccc(OC)cc21`, the “activity change, negative = inhibition” value is inactive: 0.258%.

In the case of `Oc1c(Cl)cc(Cl)cc1Sc1cc(Cl)cc(Cl)c1O`, the “activity change, negative = inhibition” value is inactive: -27.7%. Still for that read-out and setting: to `CN(C)c1ccc(/C=C2\C(=O)Nc3ccccc32)cc1` belongs inactive: -7.6%.

As for `CC(=O)OC(C)C[N+](C)(C)C` (configuration not stated), the Potency entry is “inactive”. As for `COc1ccc(C(=O)Nc2nc3c(s2)Cc2cc(OC)ccc2-3)cc1`, the “activity change, negative = inhibition” value was inactive: -16%. As for `CC(C)C[C@H](NC(=O)[C@@H]1O[C@H]1C(=O)O)C(=O)NCCCCN=C(N)N`, the “activity change, negative = inhibition” value is inactive: -0.972%. For the compound `O=C(OC1Cc2c(O)cc(O)cc2OC1c1cc(O)c(O)c(O)c1-c1c(C2Oc3cc(O)cc(O)c3CC2OC(=O)c2cc(O)c(O)c(O)c2)cc(O)c(O)c1O)c1cc(O)c(O)c(O)c1` (configuration not stated), the Potency is active: 7.94 µM.
